Values marked as one replicate rest on one cluster of the flow cell; about a third of the high ones do not repeat.
Test system: ATP
Experiment: switch fluorescence ratio, 500 uM ATP over buffer (Cy3 cluster intensity, sum of 5 cycles each) (fold (ratio)); higher = stronger signal-on switching upon ATP binding; sequences stand for … in TCGTCGGCAGCGTCAGATGTGTATAAGAGACAGTTTTTTTTTTTTTTTTTTTTTTTTT…TC
Conditions: aptamer strand: ATP DNA aptamer (quencher-CACCTGGGGGAGTATTGCGGAGGAAGG + anchor), 100 nM annealed; ATP concentration: 500 uM; one replicate
How it was run: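 Per cluster, summed Cy3 intensity from the target cycles was divided by that from the buffer cycles to give the fluorescence ratio, then averaged per switch-domain sequence. Clusters outside 100-1000 RFU were excluded. The Cy3-labelled switching-strand clusters, on a modified Illumina MiSeq flow-cell, were annealed to 100 nM quencher-labelled ATP aptamer and imaged in selection buffer, then after 15 min with 500 uM ATP at 22 °C, for five cycles with NaOH stripping and re-annealing between them.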
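Further: ATP exposure 15 min at 22 °C before imaging.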

CACAAATCTG
switch fluorescence ratio: 0.972

ACCAGACCTA
switch fluorescence ratio: 1.14

TCCTCACTCA
switch fluorescence ratio: 1.33

TACCAGCCGT
switch fluorescence ratio: 0.962

AGTCGATTGC
switch fluorescence ratio: 0.977

TTTCAAAACC
switch fluorescence ratio: 1.28

ACTTTCCTGT
switch fluorescence ratio: 0.991

TTTACCCTTT
switch fluorescence ratio: 1.02

CGGGGTCGTC
switch fluorescence ratio: 1

GGGTCTTAGA
switch fluorescence ratio: 0.987

TGGTCCGGTA
switch fluorescence ratio: 1

GGCCGTCGTG
switch fluorescence ratio: 0.977

TCTTGGCGGA
switch fluorescence ratio: 1.01

GCTTGAGTG
switch fluorescence ratio: 1.04

AAACGATAGT
switch fluorescence ratio: 0.975

AAGTGTGACC
switch fluorescence ratio: 0.965

CGAATAATGC
switch fluorescence ratio: 1.32

GTGAGCAGGA
switch fluorescence ratio: 0.999

GAATTTGGTC
switch fluorescence ratio: 0.993

TCAGCGTGGT
switch fluorescence ratio: 1.01

ATCTAGTCGA
switch fluorescence ratio: 1.01

ACGGTCCCGC
switch fluorescence ratio: 1.06

GGCTCAGGTT
switch fluorescence ratio: 1.06

GCTTTACTAG
switch fluorescence ratio: 1.01

TGAATATGC
switch fluorescence ratio: 1.13

CCGTGCTATG
switch fluorescence ratio: 1.37

GGAGCGAATA
switch fluorescence ratio: 4.6

ATGTCGGGA
switch fluorescence ratio: 0.995

ACCAATTATG
switch fluorescence ratio: 1.04

AATTATTGAA
switch fluorescence ratio: 0.976

GGTGTGCGGG
switch fluorescence ratio: 0.997

ATGCGGGTCC
switch fluorescence ratio: 1.03

GGGCTATGTG
switch fluorescence ratio: 0.959

CGCCACGTAA
switch fluorescence ratio: 1.23

AAGTTTCGAC
switch fluorescence ratio: 0.998

GTCAGTTCGC
switch fluorescence ratio: 0.99

ATGTGTACTG
switch fluorescence ratio: 0.992

GGCTTTACC
switch fluorescence ratio: 1.03

ATGCTTTTGC
switch fluorescence ratio: 1.02

ATGAGGAGCC
switch fluorescence ratio: 0.986

ACAATTATAA
switch fluorescence ratio: 1.02

CAGCGGCCAT
switch fluorescence ratio: 1.03

GCTGAGTGAT
switch fluorescence ratio: 1.04

CGCCATTAGA
switch fluorescence ratio: 1.02

AGTATAACGT
switch fluorescence ratio: 0.985

ACTCGAAATG
switch fluorescence ratio: 1.17

AAAATGGGTC
switch fluorescence ratio: 0.963

CGTTATCGTA
switch fluorescence ratio: 1.02

TGCCAGATCA
switch fluorescence ratio: 0.98

ACCCACCTAC
switch fluorescence ratio: 1.48

CGGAAACGGA
switch fluorescence ratio: 1.03

CCTGGACTTG
switch fluorescence ratio: 1.07

CAATCCGTAG
switch fluorescence ratio: 1.16

TCTATGTCTC
switch fluorescence ratio: 0.875

TGACCCAGTC
switch fluorescence ratio: 1.01

ATTAAAGGCA
switch fluorescence ratio: 1.02

CTCCTGTATG
switch fluorescence ratio: 1.04

GATATCCATT
switch fluorescence ratio: 1

CAGACCGTC
switch fluorescence ratio: 1.08

TCAGGCTGTG
switch fluorescence ratio: 0.954

CTCCTGCACT
switch fluorescence ratio: 3.47

GGTTTGACGC
switch fluorescence ratio: 0.871

TGGTACACGG
switch fluorescence ratio: 0.99

CGTTGCCCTG
switch fluorescence ratio: 0.943

TGAGTAATGT
switch fluorescence ratio: 0.999

GTATGATAAG
switch fluorescence ratio: 0.948

GCCCAAATCG
switch fluorescence ratio: 1.05

TATAAAGGCA
switch fluorescence ratio: 0.996

GCCGAGGTTT
switch fluorescence ratio: 0.995

TAAACTTCAT
switch fluorescence ratio: 0.989

GATTTCAGTT
switch fluorescence ratio: 0.986

TTCTGTCGCG
switch fluorescence ratio: 1

ATAGGGAGAA
switch fluorescence ratio: 1.03

CTATACTAAA
switch fluorescence ratio: 1.06

GCTTCGAGGA
switch fluorescence ratio: 0.992

GCTAGGCGG
switch fluorescence ratio: 0.996

CTTAAGAAG
switch fluorescence ratio: 0.975

TCATTCTTAT
switch fluorescence ratio: 0.98

GACGTCAGCT
switch fluorescence ratio: 1.01

TGAGTGTTGG
switch fluorescence ratio: 1.01

GGACGCGCGG
switch fluorescence ratio: 1.01

ATGGGTAAAT
switch fluorescence ratio: 0.976

AACCTAACCC
switch fluorescence ratio: 1.21

ATATCTGCG
switch fluorescence ratio: 0.963

CACGCTGATG
switch fluorescence ratio: 1.02

AACGAGAAAG
switch fluorescence ratio: 1.04

ACGGGTAACA
switch fluorescence ratio: 1.01

ACCCCGTGCG
switch fluorescence ratio: 1.14

TAAAATTACA
switch fluorescence ratio: 1.23

GGAAATAATA
switch fluorescence ratio: 1.09

ACCAAATTGA
switch fluorescence ratio: 0.993

GATGGTTAAG
switch fluorescence ratio: 1.03

TGAAAAAGCC
switch fluorescence ratio: 1.04

TCCAACTGCC
switch fluorescence ratio: 1.18

TGCTTAAAAT
switch fluorescence ratio: 0.973

CCCCGGATTC
switch fluorescence ratio: 2.02

ACTCTTCCG
switch fluorescence ratio: 1.22

ATAGTAAGAG
switch fluorescence ratio: 0.998

TCTACCGAAA
switch fluorescence ratio: 1.12

TGACGTTGAC
switch fluorescence ratio: 0.973

GCCTTAGGGC
switch fluorescence ratio: 0.981

GGACGACTTT
switch fluorescence ratio: 1.02

CCCGCCTAGC
switch fluorescence ratio: 2.06

TGGGTTTAGA
switch fluorescence ratio: 1

CGCTAGTGTC
switch fluorescence ratio: 1.1

GGCGGTCGT
switch fluorescence ratio: 1.01

GTGTCCGTGT
switch fluorescence ratio: 1.01

CGTGAGGCCC
switch fluorescence ratio: 0.984

GTTACACCCC
switch fluorescence ratio: 1.43

TTTGCTGTGG
switch fluorescence ratio: 1.03

TCCATATTAT
switch fluorescence ratio: 0.956

GCTCCCCCCC
switch fluorescence ratio: 1.34

TAACACAACT
switch fluorescence ratio: 1.07

TTGCGTCGGA
switch fluorescence ratio: 0.988

TGACACATCG
switch fluorescence ratio: 1.05

GCCTTGGGGT
switch fluorescence ratio: 0.971

CCGCTAGGTC
switch fluorescence ratio: 2.42

CAGCGTGCAT
switch fluorescence ratio: 1.01

ACCGTCTAAT
switch fluorescence ratio: 1.01

ATGAGAACT
switch fluorescence ratio: 1.03

AAAGATGATC
switch fluorescence ratio: 1.03

TCGGTGCAGG
switch fluorescence ratio: 0.968

AGTAATTCGT
switch fluorescence ratio: 1.03

AGGTGATGAG
switch fluorescence ratio: 1.04

GTTTGAAACT
switch fluorescence ratio: 1.01

CAGAAACTCT
switch fluorescence ratio: 1.09

ATATCTAGTA
switch fluorescence ratio: 1.01

TTTAAACATT
switch fluorescence ratio: 1.03

TCGTGGTTGT
switch fluorescence ratio: 0.989

ATGGGTGCTC
switch fluorescence ratio: 1.02

TGGCGCTTTC
switch fluorescence ratio: 1.07

GTTGGCACTC
switch fluorescence ratio: 1.01

CTGTAGGGCA
switch fluorescence ratio: 1.01

AGTGTACAGA
switch fluorescence ratio: 1.06

ACACACAGCA
switch fluorescence ratio: 1.28

GCATCCGGTC
switch fluorescence ratio: 1.07

TCTTTTAACT
switch fluorescence ratio: 0.994

GGGAGGACAG
switch fluorescence ratio: 1.01

GGCGCCTAAT
switch fluorescence ratio: 1.01

GCCCAGAA
switch fluorescence ratio: 1.03

CGTGCCGGAA
switch fluorescence ratio: 1.03

GGTTGGCCGA
switch fluorescence ratio: 0.99

TCGGGATGCT
switch fluorescence ratio: 1.06

GGGGTAAGCC
switch fluorescence ratio: 1.03

GGATACGTAA
switch fluorescence ratio: 1.18

AATGCTCTAT
switch fluorescence ratio: 0.973

AGTCGGAGGA
switch fluorescence ratio: 0.998

TGCAAGCGCC
switch fluorescence ratio: 1.08

ACCGAGTATT
switch fluorescence ratio: 1.03

TCGTCGGAGA
switch fluorescence ratio: 1

AAAAGCGGCA
switch fluorescence ratio: 1.03

CGACGCGGCC
switch fluorescence ratio: 1.06

GTACGCCGCG
switch fluorescence ratio: 0.987

CTATTGAGGT
switch fluorescence ratio: 0.952

AAACTGTCTG
switch fluorescence ratio: 0.975

AGCCCGTTTC
switch fluorescence ratio: 1.01

TCATGACCGA
switch fluorescence ratio: 1.04

Reference: the supplement of paper PMC10126150
